According to patent US11466066B2, “Variants of human BMP7 protein” (ELI LILLY AND COMPANY, priority 2017, dated 2022):

Legend:
Assay type in all cases: cell-based
[1] = tested on: ADSC/ECFC co-culture stimulated with bFGF; assay: FGF-driven cord formation; settings: 100 ng/ml; 10 ng/ml bFGF; 96 hours
Source text: An in vitro endothelial cord formation assay, a surrogate of angiogenesis, may be used to investigate the role of human BMP7 proteins on various growth factor established cords including, but not limited to, VEGF, basic FGF, and EGF established cords. Endothelial cord forming cells (ECFCs; passage 4-10 suitable for cord formation) may be cultured in EGM-2 MV (Lona) media containing a final concentration of 10% FBS and passaged onto type 1 collagen (fibrillar) coated flasks prior to seeding into the cord formation assay in vitro. […]
An ADSC/ECFC co-culture was unstimulated (basal) or stimulated with 10 ng/ml bFGF and treated simultaneously with PBS or 100 ng/ml human pro-BMP7 variant F9 or 100 nM sunitinib for 96 hours prior to immunohistochemistry for CD31 (green), α-smooth muscle actin (red), and Hoechst 33342 to stain all nuclei (blue). Resulting CD31-positive endothelial cords were visualized and quantitated using high content imaging. […]

Chordin-like 2 = target: T1, Chordin-like 2 (Homo sapiens, UniProt Q6WN34); assay: BMP inhibitor activity, hepcidin promoter luciferase: Chordin-like 2
T1 construct: purchased R&D Systems
T1 sequence (Q6WN34 26-429): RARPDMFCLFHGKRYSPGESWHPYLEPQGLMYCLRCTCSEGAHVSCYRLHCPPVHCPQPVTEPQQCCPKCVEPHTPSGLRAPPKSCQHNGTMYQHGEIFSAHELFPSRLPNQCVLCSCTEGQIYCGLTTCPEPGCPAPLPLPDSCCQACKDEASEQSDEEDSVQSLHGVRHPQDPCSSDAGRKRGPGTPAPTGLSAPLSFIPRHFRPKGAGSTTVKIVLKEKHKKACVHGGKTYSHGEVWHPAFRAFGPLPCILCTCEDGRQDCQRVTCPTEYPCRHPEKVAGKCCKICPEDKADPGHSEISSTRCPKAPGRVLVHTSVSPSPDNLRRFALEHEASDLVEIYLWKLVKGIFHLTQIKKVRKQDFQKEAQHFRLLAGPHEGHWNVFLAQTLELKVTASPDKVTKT
Method: (§1) Briefly described, Hep3B2 cells stably transfected with a hepcidin promoter luciferase construct (hereinafter, referred to as Hep3B2_HepPro_luc cells) were used for BMP inhibitor experiments. Hep3B2_HepPro_luc cells may be plated at 30,000 cells per well in a tissue culture treated 96 well plate in DMEM (Hyclone) 5% FBS (Gibco) supplemented with non-essential amino acids (Hyclone) and 200 μg/ml gentecin (Hyclone) for 24 hours. Cells were then starved in OMEM+0.2% BSA for 5 hours. Cells were treated with a mixture of human BMP7 proteins and variants thereof in OMEM (Gibco)+0.2% BSA (Gibco) for 18 hours then developed for luciferase activity utilizing Luciferase reporter Gene Assay Kit (Roche). BMP7 proteins were added at concentrations in the linear range of the assay, at 1 nM and 100 pM. Inhibitors were added at various concentrations in molar excess of the particular BMP7 protein being tested. All BMP inhibitors except Follistatin were purchased from R&D Systems. Follistatin and BMP7 proteins and variants thereof were generated at Eli Lilly and Company.

Follistatin = target: T2, Follistatin (Homo sapiens, UniProt P19883); assay: BMP inhibitor activity, hepcidin promoter luciferase: Follistatin
T2 construct: made in house
T2 sequence (P19883 30-344, species assumed): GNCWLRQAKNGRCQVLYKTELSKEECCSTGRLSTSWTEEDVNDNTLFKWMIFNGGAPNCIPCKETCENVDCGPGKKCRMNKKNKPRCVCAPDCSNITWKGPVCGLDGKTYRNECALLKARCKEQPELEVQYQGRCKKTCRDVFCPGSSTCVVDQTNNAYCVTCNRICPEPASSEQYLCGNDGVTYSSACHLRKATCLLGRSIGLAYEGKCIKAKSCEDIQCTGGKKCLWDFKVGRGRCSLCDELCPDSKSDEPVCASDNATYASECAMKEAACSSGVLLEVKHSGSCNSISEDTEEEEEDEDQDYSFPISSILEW
Method: as §1

Noggin = target: T3, Noggin (Homo sapiens, UniProt Q13253); assay: BMP inhibitor activity, hepcidin promoter luciferase: Noggin
T3 construct: purchased R&D Systems
T3 sequence (Q13253 28-232): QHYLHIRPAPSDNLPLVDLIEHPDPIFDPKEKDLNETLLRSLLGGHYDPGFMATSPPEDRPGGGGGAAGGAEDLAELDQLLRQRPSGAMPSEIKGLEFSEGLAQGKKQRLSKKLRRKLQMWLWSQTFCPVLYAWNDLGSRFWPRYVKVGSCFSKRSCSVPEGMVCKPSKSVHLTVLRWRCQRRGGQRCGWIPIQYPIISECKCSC
Method: as §1

[2] = tested on: growth factor established endothelial cords; assay: Established cord assay; settings: 100, 50, 25, and 12.5 ng/ml; cords formed 120 hours with growth factors before treatment
Source text: An in vitro endothelial cord formation assay, a surrogate of angiogenesis, may be used to investigate the role of human BMP7 proteins on various growth factor established cords including, but not limited to, VEGF, basic FGF, and EGF established cords. Endothelial cord forming cells (ECFCs; passage 4-10 suitable for cord formation) may be cultured in EGM-2 MV (Lona) media containing a final concentration of 10% FBS and passaged onto type 1 collagen (fibrillar) coated flasks prior to seeding into the cord formation assay in vitro. Adipocyte derived stem cells (Zen-Bio, cells frozen at passage 4; cells at passage 5 or greater not assayed) may be cultured in EGM-2 MV (Lonza) media prior to plating at 50,000 cells per well (into 96-well black poly-D-lysine coated plates) in co-culture media [for example, MCDB-131 media (Invitrogen) supplemented with 30 μg/ml L-ascorbic acid 2-phosphate, 1 μM dexamethasone, 50 μg/ml tobramycin, 10 μg/ml insulin (all from Sigma-Aldrich), and 10 μg/ml cell prime r-transferrin AF (Millipore, Billerica, Mass.)] for 24 hours. Adipocyte derived stem cell (ADSC) media may be removed and 5,000 ECFCs (Lonza) per well may be over seeded. […]

[3] = molar excess 100X, Hep3B2_HepPro_luc cells, 18 hours

- % inhibition (Chordin-like 2; Chordin-like 2, molar excess 0.1X): 3.5* %
- % inhibition (Chordin-like 2; Chordin-like 2, molar excess 1X): 2.4* %
- % inhibition (Chordin-like 2; Chordin-like 2, molar excess 10X): 8.8* %
- % inhibition (Chordin-like 2; Chordin-like 2, molar excess 100X, Hep3B2_HepPro_luc cells, 18 hours): 24.9* %
- % inhibition (Follistatin; molar excess 0.1X): −2.6%
- % inhibition (Follistatin; molar excess 1X): −4.3%
- % inhibition (Follistatin; molar excess 10X): 11.7%
- % inhibition (Follistatin; [3]): 22.5* %
- % inhibition (Noggin; molar excess 0.1X): −15.2%
- % inhibition (Noggin; molar excess 1X): −18.3%
- % inhibition (Noggin; molar excess 10X): −23.6* %
- % inhibition (Noggin; [3]): −28.1* %
B1: Human pro-BMP7 Variant F9: wild type pro-domain + variant mature BMP7 F9 (402 aa), SEQ ID NO: 16 (protein)
chain: DFSLDNEVHSSFIHRRLRSQERREMQREILSILGLPHRPRPHLQGKHNSAPMFMLDLYNAMAVEEGGGPGGQGFSYPYKAVFSTQGPPLASLQDSHFLTDADMVMSFVNLVEHDKEFFHPRYHHREFRFDLSKIPEGEAVTAAEFRIYKDYIRERFDNETFRISVYQVLQEHLGRESDLFLLDSRTLWASEEGWLVFDITATSNHWVVNPRHNLGLQLSVETLDGQSINPKLAGLIGRHGPQNKQPFMVAFFKATEVHFRSIRSTGSKQRSQNRSKTPKNQEALRMANVAENSSSDQRQACKKHELYVSFRDLGWQDWIIAPEGYAAGYCEGECAFPLNSYMNATNHALVQTLVHVINPETVPKPCCAPTQLGAISVLYFDDSSNVILKKWRNMVVRACGCH
- Connected Tube Area - FGF (% PBS) [1]: 4.39 ± 2.80%
- established cord connected tube area (% PBS control) [2]: reduce established cord connected tube area

Marks after values point to notes of the source that are not given here.
